Read-outs that look alike come from different tables or passages of the source. Not every detail of the peptide structures is certain; ends, links or a residue may be inferred. Marks after values point to notes of the source that are not given here. Some results were stated once for a whole list of compounds, not compound by compound. Ends that are not written are not given here.
How the values were obtained:
E. coli IA2 = experiment: Bactericidal assay, smooth strain E. coli IA2; assay type: cell-based; details: Table 1, SD about ±30%
Text: (§1) Pseudomonas aeruginosa type 1 is a clinical, smooth strain isolate serotyped by using the scheme of Homma, Japan. J. Exp. Med. 46, 329–336 (1976) and maintained in the lab by monthly transfer on blood agar plates. E. coli J96, IA2, and H5 are smooth strain, uropathogenic clinical isolates kindly maintained and provided by J. R. Johnson and described in Johnson et al., J. Infect. Disease 173, 920–926 (1996) for J96 and IA2 and in Johnson et al., J. Infect. Disease 173, 746–749 (1996) for H5. J5 is an E. coli rough strain initially referenced by G. R. Siber and discussed in Warren et al., Infect. Immunity 55, 1668–1673 (1987) and is analogous to the smooth strain E. coli 0111:B4 used in the BioWhittaker LAL endotoxin detection and quantitation kit described below. Gram-positive MN8 and MNHO are two patient isolates of Staphylococcus aureus, which were kindly provided by P. M. Schlievert and described in Bohach et al., Rev. Infect. Diseases 11, 75–82 (1989) for MNHO and in Schlievert et al., J. Infect. Diseases 147, 236–242 (1983) for MN8. All cultures are maintained on nutrient agar plates.
(§2) Pyrogen-free solutions were used throughout the assay. Log phase bacteria were obtained by transferring an overnight culture or scraping crystals off −85° C. glycerol stocks of overnight cultures. Bacteria were washed and resuspended in 0.9% sodium chloride with adjustment to an optical density at 650 nm which yields 3×10^8 CFU/ml. Bacteria were then diluted 1:10 in 0.08 M citrate phosphate buffer, pH 7.0 (prepared by mixing 0.08 M citric acid with 0.08 M dibasic sodium phosphate). Bacteria (0.15 ml) were incubated with peptide in a final volume of 1.0 ml of buffer. The assay was done in 17×100 polypropylene tubes in a reciprocal water bath shaker at 37° C. for 30 minutes. Following this 30 minute (min) incubation, 10-fold dilutions were made in 0.9% sodium chloride. Dilutions were done to 10^−4 and 20 μl of each dilution was streaked across an agar plate. Gram-positive organisms were plated on nutrient agar plates containing 2% agar and Gram-negative organisms were plated on MacConkey agar (2%). Plates were incubated overnight at 37° C. and counted the next morning. The dilution containing 10–100 bacteria was counted and the number multiplied by 50 to adjust all counts to the number bacteria killed per milliliter. Peptide concentrations were converted to logarithm base ten and graphed. Bactericidal activity was determined by dose response where LD50 values were determined by best fits of a sigmoidal curve to the dose response data.

[1] = tested on: Staphylococcus aureus MN8; experiment: Bactericidal assay, Gram-positive S. aureus MN8; assay type: cell-based; details: Table 1, SD about ±30%
Text: as §1, §2

[2] = tested on: Pseudomonas aeruginosa type 1; experiment: Bactericidal assay, P. aeruginosa (P.a.); assay type: cell-based; details: for LD50 bactericidal activity, Gram neg. smooth P.a.: Table 1, P. aeruginosa; for LD50 bactericidal activity, Gram neg. smooth P.a. / LD50 bactericidal activity, Gram-neg. smooth P.a.: SD about ±30%; for LD50 bactericidal activity, Gram-neg. smooth P.a.: Table 4, SC-4 variants
Text: as §1, §2

E. coli J96 = assay type: cell-based; details: Table 1, SD about ±30%
Text: as §1, §2

E. coli H5 = experiment: Bactericidal assay, smooth strain E. coli H5; assay type: cell-based; details: Table 1, SD about ±30%
Text: as §1, §2

E. coli 055:B5 LPS = experiment: Limulus amoebocyte lysate assay for LPS neutralization; assay type: biochemical
Text: The ability of synthetic peptides to neutralize endotoxin was detected using the chromogenic QCL-1000 kit from BioWhittaker, Inc. (Walkersville, Md.) as described in their protocol. This method is quantitative for Gram-negative bacterial endotoxin (lipopolysaccharide, LPS). In the Limulus amebocyte lysate (LAL) assay, peptides that are active inhibit the LPS-mediated activation of a proenzyme (Young et al., J. Clin. Invest. 51, 1790–1797 (1972)) whose active form would release p-nitroaniline (pNA) from a colorless synthetic substrate (Ac-Ile-Glu-Ala-Arg-pNA), producing a yellow color (pNA) whose absorption is monitored spectrophotometrically at 405–410 nm. The initial rate of enzyme activation is proportional to the concentration of endotoxin present. The concentration of peptide required to bind to LPS and therefore to inhibit the Limulus amoebocyte lysate driven by 0.04 unit (or 0.01 ng) of E. coli 055:B5 LPS (from SIGMA) was determined by dose response.

E. coli J5 = experiment: Bactericidal assay, rough strain E. coli J5; assay type: cell-based; details: SD about ±30%; for LD50 bactericidal activity, Gram neg. rough J5: Table 1, E. coli J5; for LD50 bactericidal activity, Gram-neg. rough J5: Table 4, SC-4 variants
Text: as §1, §2

[3] = tested on: Staphylococcus aureus MNHO; experiment: Bactericidal assay, Gram-positive S. aureus MNHO; assay type: cell-based; details: SD about ±30%
Text: as §1, §2

[4] = tested on: Gram-negative and positive bacteria; experiment: Bactericidal assay, all strains of the study stated together; assay type: cell-based
[5] = read-out: IC50 LPS neutralization
[6] = Table 1, SD about ±30%, read-out: LPS effect, IC50 for neutralization of LPS

| Substance | LD50 bactericidal activity, Gram neg. smooth IA2 (E. coli IA2) | LD50 bactericidal activity, Gram-positive MN8 [1] | LD50 bactericidal activity, Gram neg. smooth P.a. [2] | LD50 bactericidal activity, Gram neg. smooth J96 (E. coli J96) | LD50 bactericidal activity, Gram neg. smooth H5 (E. coli H5) | IC50 (E. coli 055:B5 LPS; [5]) [µM] | LD50 bactericidal activity, Gram neg. rough J5 (E. coli J5) | LD50 bactericidal activity, Gram-positive MNHO ([3]; Table 1, S. aureus MNHO) | IC50 (E. coli 055:B5 LPS; [6]) [µM] | concentration below which inactive [4] [µM] | LD50 bactericidal activity, Gram-neg. smooth P.a. [2] | lethal concentration ([2]; against P. aeruginosa) [nM] | LPS neutralization in words (E. coli 055:B5 LPS) | LD50 bactericidal activity, Gram-neg. rough J5 (E. coli J5) | LD50 bactericidal activity, Gram-positive MNHO ([3]; Table 4, SC-4 variants) | drop in LPS neutralizing activity relative to SC-4 (E. coli 055:B5 LPS; SC-3: relative to either SC-4 or SC-5) | IC50 (E. coli 055:B5 LPS; Table 4, SC-4 variants, SD about ±30%, read-out: LPS neutralization IC50) [µM] |
| --- | --- | --- | --- | --- | --- | --- | --- | --- | --- | --- | --- | --- | --- | --- | --- | --- | --- |
| ANIKLSVQMKLF-NH2 [SC-1, ANIKLSVQMKLF] | 0.48 10^−6 M | 0.65 10^−6 M | 0.86 10^−6 M | 0.12 10^−6 M | 0.7 10^−6 M | 3.5 | 0.24 10^−6 M | 0.48 10^−6 M |  |  |  |  |  |  |  |  |  |
| ANIKLSVQMKLFKRHLKWKIIVKLNDGRELSLD-NH2 [βpep-25, reference compound] | 0.30 10^−6 M | 0.16 10^−6 M | 0.06 10^−6 M | 0.13 10^−6 M | 0.20 10^−6 M | ~2 | 0.02 10^−6 M | 0.1 10^−6 M | 1.6 |  |  |  |  |  |  |  |  |
| KIIVKLNDGREL-NH2 [SC-7, KIIVKLNDGREL] | XXX (XXX means not active at concentrations below 1 × 10^−5 M in the bactericidal assay) | XXX (XXX means not active at concentrations below 1 × 10^−5 M in the bactericidal assay) | XXX (XXX means not active at concentrations below 1 × 10^−5 M in the bactericidal assay) | XXX (XXX means not active at concentrations below 1 × 10^−5 M in the bactericidal assay) | XXX (XXX means not active at concentrations below 1 × 10^−5 M in the bactericidal assay) | > 100 | XXX (XXX means not active at concentrations below 1 × 10^−5 M in the bactericidal assay) | XXX (XXX means not active at concentrations below 1 × 10^−5 M in the bactericidal assay) |  | ≥ 10 |  |  |  |  |  |  |  |
| KLFKRHLKWKII-NH2 [SC-4, KLFKRHLKWKII] | 0.08 10^−6 M | 0.35 10^−6 M | 0.01 10^−6 M | 0.25 10^−6 M | 0.08 10^−6 M | 2 | 0.003 10^−6 M | 0.4 10^−6 M | 1.9 |  | 0.01 10^−6 M | 10 | micromolar range | 3e-09 M | 0.4 10^−6 M |  |  |
| KLSVQMKLFKRH-NH2 [SC-2, KLSVQMKLFKRH] | 0.8 10^−6 M | 0.8 10^−6 M | 0.05 10^−6 M | 1.3 10^−6 M | 0.63 10^−6 M | > 100 | 0.13 10^−6 M | 0.28 10^−6 M |  |  |  |  |  |  |  |  |  |
| KRHLKWKIIVKL-NH2 [SC-5, KRHLKWKIIVKL] | 0.33 10^−6 M | 0.35 10^−6 M | 0.13 10^−6 M | 0.2 10^−6 M | 0.63 10^−6 M | ~2 | 0.02 10^−6 M | 0.18 10^−6 M | 1.6 |  |  |  |  |  |  |  |  |
| LKWKIIVKLNDG-NH2 [SC-6, LKWKIIVKLNDG] | 0.4 10^−6 M | 0.48 10^−6 M | 0.09 10^−6 M | 1.1 10^−6 M | 1.3 10^−6 M | 3.5 | 0.4 10^−6 M | 0.35 10^−6 M |  |  |  |  |  |  |  |  |  |
| VKLNDGRELSLD-NH2 [SC-8, VKLNDGRELSLD] | XXX (XXX means not active at concentrations below 1 × 10^−5 M in the bactericidal assay) | XXX (XXX means not active at concentrations below 1 × 10^−5 M in the bactericidal assay) | XXX (XXX means not active at concentrations below 1 × 10^−5 M in the bactericidal assay) | XXX (XXX means not active at concentrations below 1 × 10^−5 M in the bactericidal assay) | XXX (XXX means not active at concentrations below 1 × 10^−5 M in the bactericidal assay) | > 100 | XXX (XXX means not active at concentrations below 1 × 10^−5 M in the bactericidal assay) | XXX (XXX means not active at concentrations below 1 × 10^−5 M in the bactericidal assay) |  | ≥ 10 |  |  |  |  |  |  |  |
| VQMKLFKRHLKW-NH2 [SC-3, VQMKLFKRHLKW] | 0.8 10^−6 M | 1.2 10^−6 M | 0.01 10^−6 M | 0.63 10^−6 M | 1.3 10^−6 M | 25 | 0.01 10^−6 M | 1 10^−6 M | 25 |  | 0.01 10^−6 M |  |  | 0.01 10^−6 M | 1 10^−6 M | about 10 fold | 25 |

Source: US7144982B2, “Polypeptides with therapeutic activity and methods of use” (University of Minnesota, priority 2000, dated 2006)
